Reference: the supplement of paper PMC3334620
Over roughly 33,000 sequences, “E-score (-0.5 to 0.5)” has its median near -0.012; the highest 2% begin near 0.29. The list shows a part of the results.

The sequences below were run against T1, Ybr033w (UniProt P38073) (assay: PBM E-score (8-mer binding enrichment) (E-score (-0.5 to 0.5)); higher = stronger / more preferred TF binding; most listed sequences are background and not binding sites). Settings: protein concentration: 200 nM; construct: GST-full length.
T1 sequence: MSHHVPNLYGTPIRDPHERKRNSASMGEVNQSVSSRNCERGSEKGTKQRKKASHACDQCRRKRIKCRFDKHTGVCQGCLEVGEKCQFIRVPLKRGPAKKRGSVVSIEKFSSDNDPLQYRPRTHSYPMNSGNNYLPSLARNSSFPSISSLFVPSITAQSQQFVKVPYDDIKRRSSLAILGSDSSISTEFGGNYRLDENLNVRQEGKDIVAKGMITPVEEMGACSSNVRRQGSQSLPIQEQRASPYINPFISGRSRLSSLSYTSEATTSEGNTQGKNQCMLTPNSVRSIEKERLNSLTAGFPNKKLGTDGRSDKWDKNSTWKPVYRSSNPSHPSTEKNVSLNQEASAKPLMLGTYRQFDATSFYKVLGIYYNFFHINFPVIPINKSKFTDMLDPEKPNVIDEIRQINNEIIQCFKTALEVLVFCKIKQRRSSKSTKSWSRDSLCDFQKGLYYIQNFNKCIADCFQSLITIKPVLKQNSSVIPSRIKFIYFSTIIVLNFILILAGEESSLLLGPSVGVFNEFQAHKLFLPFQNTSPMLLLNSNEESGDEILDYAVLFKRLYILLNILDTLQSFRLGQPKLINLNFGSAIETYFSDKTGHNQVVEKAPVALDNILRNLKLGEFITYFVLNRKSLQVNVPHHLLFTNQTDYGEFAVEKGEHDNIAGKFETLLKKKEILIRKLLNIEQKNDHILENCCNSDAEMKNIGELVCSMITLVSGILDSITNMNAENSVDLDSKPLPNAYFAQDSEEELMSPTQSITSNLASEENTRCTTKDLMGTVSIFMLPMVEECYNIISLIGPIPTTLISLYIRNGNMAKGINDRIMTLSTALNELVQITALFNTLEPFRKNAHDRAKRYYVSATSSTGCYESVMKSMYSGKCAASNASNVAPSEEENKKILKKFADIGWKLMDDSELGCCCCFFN
Outline: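 Universal all-10-mer Agilent arrays, fresh or stripped once, were converted to double-stranded form by primer extension. GST-tagged yeast transcription factors from PURExpress in vitro transcription/translation, full-length or DNA-binding domain only, were applied at about 100-200 nM and detected with fluorescent anti-GST. After masliner normalisation, the Universal PBM Analysis Suite scored each ungapped eight-base word together with its reverse complement by E-score.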

| Sequence | PBM E-score |
| --- | --- |
| AAGCGCAA | 0.172 |
| GAACTGCC | -0.136 |
| ATGGAGTC | 0.127 |
| GACCGATA | 0.111 |
| ATCTGCGA | -0.152 |
| CCCGATCG | -0.189 |
| ACGCAACT | 0.075 |
| CTTGGATC | 0.0879 |
| CGGTGGAA | 0.0562 |
| AGGGAAAG | -0.0954 |
| AACTTAAG | 0.0775 |
| CAAGTCAG | -0.068 |
| GAAGATAA | 0.319 |
| AGACACCG | -0.00977 |
| TCATCAGA | -0.0315 |
| ACCCATGC | -0.104 |
| GGTGGTAC | -0.231 |
| AACCAACG | -0.0876 |
| TATTTCGA | 0.357 |
| CCTCCCTA | -0.225 |
| CTCAGCTC | -0.0962 |
| GATGGAGA | -0.0673 |
| ATGACAGC | 0.0533 |
| GAGGAAGC | -0.209 |
| CTCGATCC | -0.127 |

| Sequence | PBM E-score |
| --- | --- |
| CTTTAAGC | 0.0527 |
| ACGGGGCC | -0.335 |
| CTCTACCC | -0.12 |
| GGGAACAC | 0.0998 |
| AAGATCTC | 0.0171 |
| CGACCAAC | -0.0674 |
| AATACTAG | 0.191 |
| AAGTCACT | 0.018 |
| CACACGTC | -0.0938 |
| CAGATGTC | 0.0259 |
| ACTCCCGG | -0.0371 |
| AACGGAGC | -0.286 |
| CCCCGTAC | -0.341 |
| GGCTGCCA | -0.122 |
| CGCGATCC | -0.148 |
| GAGATCCA | -0.0406 |
| GACAATGC | -0.0133 |
| TAGTTATA | 0.215 |
| ACACGAAA | 0.233 |
| ACGGTGCG | -0.129 |
| GTCAATTA | 0.0415 |
| AGAGATTC | 0.112 |
| GGCAACAA | 0.0925 |
| AGATCTGG | -0.109 |
| AATTCCGA | 0.296 |

| Sequence | PBM E-score |
| --- | --- |
| GTCACTGA | -0.193 |
| CATCTTCG | 0.0785 |
| ACATGCCT | -0.0518 |
| ATTTCACA | 0.151 |
| TATTGTCA | 0.193 |
| ATTCTGAG | 0.0635 |
| ACCGCCGA | 0.00768 |
| CTTACAAA | 0.107 |
| GTGCGAAA | 0.0668 |
| GTGGAAAA | 0.298 |
| AGACCACG | -0.163 |
| AAACAAGA | 0.197 |
| AGGACTTC | -0.0252 |
| GGTGAGTA | -0.00821 |
| AGCAGCGC | -0.0908 |
| CAAAACCC | 0.0145 |
| AGTAGCAA | 0.152 |
| CACTCATC | 0.0289 |
| CCAGCGTC | -0.332 |
| AGACCCAA | -0.132 |
| CGCGCCAC | 0.011 |
| ACACACTC | 0.171 |
| AACGCCTA | -0.00852 |
| CATGAATA | -0.00235 |
| AAGTGTGG | 0.0881 |

| Sequence | PBM E-score |
| --- | --- |
| CATCGACA | -0.105 |
| ATCACACA | 0.215 |
| ACCCCGAG | -0.201 |
| CGGGAACG | -0.176 |
| GGAGCGGA | -0.102 |
| AGGCCTGC | -0.154 |
| AGTCCTCG | -0.173 |
| ACCATTGG | 0.0393 |
| ACTCCCTC | -0.264 |
| ACTGACGG | -0.0255 |
| GACGCATA | 0.0181 |
| CCAGAGCG | -0.22 |
| ACGTCTAC | -0.0619 |
| AAATCCCC | -0.137 |
| ATGCTCGC | -0.00437 |
| AGCCTGAA | -0.0308 |
| CTAACTAA | 0.196 |
| AACTTGGC | 0.119 |
| GTGGGCAA | -0.0794 |
| AAGTCGCC | -0.246 |
| CAGGCAAA | 0.0423 |
| ATCGGAAC | 0.0632 |
| ACCCCACG | -0.301 |
| CCTGGACC | -0.203 |
| GCGCTAAC | 0.00302 |

| Sequence | PBM E-score |
| --- | --- |
| ATGCTAAC | 0.0627 |
| ACTCCGAC | -0.0833 |
| AGACCGCT | -0.221 |
| CCACCTAA | 0.0562 |
| CATAACAA | 0.226 |
| ACGGGTGG | -0.171 |
| CTCAGAAG | -0.208 |
| AAAATTGC | 0.069 |
| CAACTTGC | -0.0839 |
| GTGGGAGA | -0.234 |
| CGACCGAG | -0.062 |
| ATGGTTCC | 0.135 |
| CAATGGTG | -0.283 |
| CATCGAGA | 0.0222 |
| AAAATGTC | 0.177 |
| CGCGCACA | -0.014 |
| AGCTCTGG | -0.197 |
| GTTTCAGA | 0.0593 |
| GACGTACA | 0.00296 |
| AGAGAGTC | 0.00587 |
| AGCGAGCC | -0.124 |
| ACCCAAGA | -0.128 |
| CCGTCGGC | -0.215 |
| ATAGTAAA | 0.277 |
| TGATCAAA | 0.076 |

| Sequence | PBM E-score |
| --- | --- |
| CAACCCGG | -0.227 |
| GAAATAGC | 0.0527 |
| CTGCGGCA | -0.196 |
| CGTTACCC | -0.353 |
| CCAGTCAC | -0.176 |
| AACCGCCA | -0.112 |
| CCGGCCGA | -0.205 |
| CCATAGCC | -0.181 |
| CAGCCCCG | -0.216 |
| TAGCGTCA | 0.0632 |
| ATCGGCAT | -0.0727 |
| CACTCTTC | 0.00135 |
| GTTAATGA | 0.12 |
| CACGCAGG | 0.0693 |
| AAGACATC | -0.0802 |
| CGACAGCC | -0.0237 |
| ACCCTCAC | -0.289 |
| AAACCAGG | -0.0313 |
| ATAGCTGA | -0.196 |
| GATTTCCA | 0.0676 |
| AAGCTAGA | -0.0214 |
| CGCACCTC | -0.198 |
| GGAAGATA | 0.274 |
| CAGTTGCA | 0.0331 |
| GTAGCAAA | 0.238 |

| Sequence | PBM E-score |
| --- | --- |
| CATGTTAC | -0.0517 |
| CACCCCAG | 0.0316 |
| AGGTTGGG | -0.0909 |
| AATCCACA | 0.195 |
| CCGTCAAC | -0.0408 |
| AGTATGAC | 0.0908 |
| AATATCCA | 0.203 |
| TCACCCCA | 0.0736 |
| GCGATGAC | -0.171 |
| GAGTGGAC | -0.0216 |
| CCGTGATA | -0.0818 |
| AAAATGTG | 0.0163 |
| ATATAGAT | 0.286 |
| GTCGTGTA | 0.103 |
| AACCCACG | -0.227 |
| GCGCTACA | -0.144 |
| AAATTCCC | 0.0364 |
| AATGGCGT | -0.116 |
| AAATGTCC | -0.185 |
| GGGGGATA | -0.293 |
| AAGGCACG | -0.0392 |
| AAGTAAGA | 0.0371 |
